We go through 35 compounds from the supplement of paper PMC4723716.

“And” between values parts separate entries of the source, which are not always exact repeats. Equal entries are not always repeated. ± gives the uncertainty stated by the source. The full ranking holds about 9,900 compounds; the median of “viability index relative to DMSO control” is about 1, and the lowest 2% start at about 0.85. The list shows a part of the results.

The subject of this experiment is Plasmodium falciparum NF54 stage V gametocytes. The experiment in a line: viability index relative to DMSO control (fraction); higher = less gametocyte killing. The following applies: 2.5 µM, library set: Broad Institute DOS, incubation time: 72 h. The essentials: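 P. falciparum NF54 stage V gametocytes in serum-free screening medium (0.75% gametocytemia, 1.25% hematocrit, 10 µl) were incubated with compound at 2.5 µM in 1,536-well plates for 72 hr at 37°C under low oxygen. Then 3 µl of 2.5 µM MitoTracker Red CMXRos plus 0.13% saponin was added for one to two hours. One field per well was imaged, 20–70 µm2 red particles were counted, and the viability index was the count divided by the plate mean of DMSO wells.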

As to `O=C(CN1CCOCC1)N1C[C@@H]2N[C@H](C1)[C@@H]2c1ccc(-c2ccncc2)cc1`, the viability index was 0.985 ± 0.094.

`C[C@@H]1CCCCO[C@@H](CN(C)S(=O)(=O)c2ccccc2)[C@H](C)CN([C@@H](C)CO)C(=O)c2cc(NC(=O)Nc3ccc4c(c3)OCO4)ccc2O1`: the viability index was determined as 1.04 ± 0.043.

Take `C[C@@H]1CCCCO[C@@H](CN(C)CC2CC2)[C@H](C)CN([C@H](C)CO)C(=O)c2cc(NC(=O)c3ccccc3)ccc2O1`: the viability index is 1.05 ± 0.024.

For `CO[C@H]1CN(C)C(=O)c2ccc(NS(=O)(=O)c3c(C)noc3C)cc2OC[C@H](C)NC[C@H]1C`, the viability index worked out at 1.052 ± 0.0056.

`CC(C)NC[C@@H]1[C@H](c2ccc(C3=CCCCC3)cc2)[C@H](CO)N1S(C)(=O)=O` had a viability index of 0.996 ± 0.022.

Turning to `O=C(C1CCOCC1)N1CC2(C1)[C@H](c1ccccc1)[C@@H](CO)N2C(=O)CC1CC1`, the viability index came out at 1.11 ± 0.077.

In turn, `O=C(C1CCOCC1)N1CC(=O)N2[C@H](CO)[C@@H](c3ccc(-c4cccnc4)cc3)[C@H]2C1` gave a viability index of 1.05 ± 0.16.

For the compound `N#C[C@H]1N[C@@H](CO)[C@H]1c1ccc(C#Cc2ccccc2F)cc1`, the viability index is 1.05 ± 0.012.

Take `O=C(CC1CC1)N1CC2(C1)[C@H](c1ccccc1)[C@H](CO)N2C(=O)c1ccccn1`: the viability index was 1.11 ± 0.076.

On to `N#C[C@H]1[C@@H](c2ccccc2-c2ccccc2F)[C@@H](CO)N1C(=O)C1CCC1`, for which the viability index was 1.15 ± 0.043.

`C[C@H](CO)N1C[C@H](C)[C@@H](CN(C)C(=O)c2ccccc2)Oc2cc(-c3cccc(C#N)c3)ccc2S1(=O)=O` gave a viability index of 1.003 ± 0.0097.

The compound `COc1ccc(CN(C)C[C@@H]2Oc3ccc(NC(=O)Nc4ccc5c(c4)OCO5)cc3CC(=O)N([C@H](C)CO)C[C@@H]2C)cc1` yielded a viability index of 0.983 ± 0.077.

In turn, `O=C(CN1CCOCC1)N1C[C@@H]2N[C@H](C1)[C@H]2c1ccc(/C=C/c2ccccc2)cc1` gave a viability index of 1.1 ± 0.036.

For `CO[C@@H]1CN(C)C(=O)c2cc(NC(=O)NC(C)C)ccc2OC[C@@H](C)N(C(=O)CN(C)C)C[C@H]1C`, the viability index was 1.02 ± 0.021.

For the compound `COc1ccc(NC(=O)N(C)C[C@@H]2Oc3ccc(NC(=O)Nc4cccc5ccccc45)cc3CC(=O)N([C@@H](C)CO)C[C@H]2C)cc1`, the viability index is 1.03 ± 0.033.

`O=C(C1CCOCC1)N1CC(=O)N2[C@H](C1)[C@@H](c1ccc(-c3cccnc3)cc1)[C@@H]2CO` yielded a viability index of 0.947 ± 0.014.

As for `COc1ccc(S(=O)(=O)N2CC[C@H]3[C@H](CO)Nc4ccc(Br)cc4[C@H]32)cc1`, the viability index is 1.099 ± 0.0089.

Compound `C[C@H](O)C#Cc1ccc([C@@H]2[C@@H](CO)N3CCCCN(CC4CC4)C[C@@H]23)cc1` displayed a viability index of 1.01 ± 0.098.

Consider `CO[C@H]1CN(C)C(=O)c2ccc(NC(=O)Nc3ccccc3)cc2OC[C@H](C)N(C(=O)CC2CC2)C[C@H]1C`, for which the viability index is 0.977 ± 0.067.

For the compound `CCCC(=O)Nc1ccc2c(c1)C(=O)N(C)[C@@H]1CC[C@H](CC(=O)NCc3cccc(F)c3)O[C@@H]1CO2`, the viability index was found to be 0.9974 ± 0.0047.

`O=C(c1ccc(F)cc1)N1CC(=O)N2[C@H](C1)[C@H](c1ccc(C#CCC3CCCC3)cc1)[C@@H]2CO` yielded a viability index of 1.07 ± 0.016.

The compound `O=C(c1cccc(F)c1)N1CC(=O)N2[C@H](CO)[C@H](c3ccc(/C=C/c4ccccc4)cc3)[C@@H]2C1` had a viability index of 1.05 ± 0.066.

In turn, `O=C(c1ccccc1F)N1CC2(C1)[C@@H](c1ccccc1)[C@@H](CO)N2CC1CCOCC1` displayed a viability index of 1.13 ± 0.089.

Turning to `Fc1ccc(-c2ccc([C@@H]3[C@@H]4CN(Cc5ccccc5)C[C@H]3N4)cc2)cc1`, the viability index was determined as 0.956 ± 0.038.

Compound `COc1ccc2c3c([nH]c2c1)[C@H](CO)N(C[C@]31CCN(CC1)C(=O)NC(C)C)C(=O)c1ccc(F)cc1` returned a viability index of 1.05 ± 0.021.

Turning to `O=C(C[C@H]1CC[C@H]2[C@@H](COC[C@@H](O)CN2C(=O)Nc2cccc(F)c2)O1)NCCCN1CCOCC1`, the viability index worked out at 1.06 ± 0.0087.

`CC(C)(C)[S@@](=O)N1Cc2cc(C(=O)N3CCOCC3)nc(-c3cccc(-c4ccc(C#N)cc4)c3)c2[C@H]1CCO` displayed a viability index of 1.07 ± 0.013.

Consider `O=C(CC1CC1)N1CC2(C1)[C@@H](c1ccccc1)[C@@H](CO)N2Cc1ccccn1`, for which the viability index worked out at 1.03 ± 0.062.

`OC[C@@H]1[C@H](c2ccc(-c3ccc(F)cc3)cc2)[C@@H](CNC2CCCC2)N1CCC(F)(F)F` displayed a viability index of 0.557 ± 0.096.

As to `CO[C@H]1CN(C)C(=O)c2cc(NC(=O)c3ccc4c(c3)OCO4)ccc2OC[C@@H](C)N(CCC(F)(F)F)C[C@@H]1C`, the viability index is 1.12 ± 0.14.

As to `O=C(C1CCC1)N1CC(=O)N2[C@H](CO)[C@@H](c3ccc(Br)cc3)[C@@H]2C1`, the viability index is 1.07 ± 0.026.

In turn, `CN(C)C(=O)c1cccc(-c2cccc(-c3nc(C(=O)N4CCCCC4)cc4c3[C@H](CCO)N([S@@](=O)C(C)(C)C)C4)c2)c1` gave a viability index of 1.04 ± 0.0013.

For `CN1C(=O)c2cc(NC(=O)c3cccc(F)c3)ccc2OC[C@H]2O[C@@H](CC(=O)NCC3CCCCC3)CC[C@H]21`, the viability index was 1.09 and 1.14.

Compound `COc1ccccc1-c1ccc2n(c1=O)C[C@@H]1[C@@H](CO)[C@H](C(=O)N3CCOCC3)[C@H]2N1CC1CC1` gave a viability index of 1.04 ± 0.016.

Compound `C[C@@H]1CCCCO[C@H](CN(C)C(=O)c2ccncc2)[C@@H](C)CN([C@H](C)CO)C(=O)c2cc(NS(=O)(=O)c3cccs3)ccc2O1` gave a viability index of 1.13 ± 0.017.
